# Test results published in the supplement of paper PMC3334620.
# In all, about 33,000 sequences were measured (“E-score (-0.5 to 0.5)”: median about -0.017, highest 2% from about 0.3 on). Some of the results follow.
# Molecular target: T1, Sut1 (UniProt P53032)
# T1 sequence: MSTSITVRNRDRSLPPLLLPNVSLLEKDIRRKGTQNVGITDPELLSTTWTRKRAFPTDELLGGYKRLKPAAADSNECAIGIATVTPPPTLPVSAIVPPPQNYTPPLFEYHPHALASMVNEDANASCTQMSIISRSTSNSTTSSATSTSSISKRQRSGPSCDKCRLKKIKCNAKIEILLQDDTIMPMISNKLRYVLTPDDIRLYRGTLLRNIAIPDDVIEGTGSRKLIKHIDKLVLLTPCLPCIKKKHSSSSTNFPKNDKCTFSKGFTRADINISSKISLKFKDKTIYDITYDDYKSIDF
# Assay: PBM E-score (8-mer binding enrichment) (E-score (-0.5 to 0.5)); higher = stronger / more preferred TF binding; most listed sequences are background and not binding sites
# Conditions: protein concentration: 200 nM; construct: GST-full length
# Experimental: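 Universal 'all 10-mer' protein binding microarrays (Agilent AMADID 015681) probed with GST-tagged S. cerevisiae TFs (full-length or DBD) made by in vitro transcription/translation (PURExpress), about 100-200 nM. Bound TF was detected with fluorescent anti-GST. Each ungapped 8-mer (which stands for itself and its reverse complement) is scored by the PBM enrichment score (E-score), a modified Wilcoxon-Mann-Whitney statistic from -0.5 to +0.5, computed with the Universal PBM Analysis Suite. Scale: above 0.35 generally sequence-specific binding.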
row,Sequence,PBM E-score
1,ATTAGGAC,0.0351
2,AGTTGCGG,0.153
3,ACAGTTAA,0.189
4,AGCCGTGA,-0.0248
5,ACGCCCTA,-0.154
6,AGAGGTGA,-0.0257
7,CTTAGTAC,0.00438
8,GCACCAAA,-0.0995
9,ATCCAGAC,-0.0133
10,GAAAACAC,0.109
11,ATGGAACG,-0.244
12,AGTCAACG,-0.187
13,AGTTAATC,0.16
14,ATCTGACG,-0.291
15,CGTATAAG,0.0744
16,CGATTAAG,0.169
17,CACCCTAG,-0.13
18,AATAGATT,0.234
19,ACGACAGC,-0.123
20,ATAATGTG,0.0616
21,ATCGCATG,0.0378
22,AAGATACT,0.0112

row,Sequence,PBM E-score
1,AATGTGGC,-0.172
2,GCGAGCGA,0.134
3,ACCCTCAG,-0.0355
4,AATCCATC,-0.159
5,CTGTAGCA,-0.0036
6,GCTTAGAA,-0.00507
7,AAGGCCGG,0.141
8,GGTAGGGA,-0.0326
9,TCGTTACA,-0.0871
10,GGCTCGGA,0.227
11,CAAGCGAA,-0.0186
12,ATTTGGGG,-0.112
13,TCGGCCCA,-0.137
14,CTGGTTAC,-0.257
15,ATCTTAAT,0.0933
16,CAAAGTTA,0.232
17,CCTTAGTC,-0.196
18,AGCAACTA,0.0763
19,GAGGCGAC,-0.0877
20,GCTTCTAA,-0.096
21,CGCAACAA,0.0103
22,CCCTTAAA,0.0399

row,Sequence,PBM E-score
1,CCCATATC,-0.043
2,ATTTCCAG,-0.0254
3,GCGCCTCA,-0.0448
4,CGAACGCA,0.163
5,AACCGGCA,-0.0988
6,CACTCAAG,-0.104
7,ACATTTCT,0.211
8,AGGGCAAC,-0.119
9,CCATGCAG,-0.203
10,ATCGCGGC,0.122
11,AAAACAAC,0.0331
12,ATTGCTTC,0.0496
13,AAAATAAG,0.208
14,CACATAGG,0.0745
15,CCTCCATC,-0.301
16,CAGGTTGA,-0.0962
17,AGGATCGC,-0.214
18,CGAGTACA,-0.106
19,ACGACCGT,-0.327
20,GCAGGCAC,-0.246
21,ACCAACAC,0.171
22,CCGTCCAA,0.121

row,Sequence,PBM E-score
1,CGGAGTGC,0.468
2,AGCGTTTG,-0.0797
3,GGGCGGGA,-0.178
4,AGCAGCAA,0.0164
5,ACAGGGGT,-0.261
6,TCGGGCCA,-0.0705
7,AACTCACA,0.11
8,CCAACCAC,0.0175
9,ACTCTTTG,0.0382
10,GACTCCAC,0.0104
11,AGCTGCAC,-0.0851
12,ACCCTTAA,0.0384
13,ACTACCCT,-0.205
14,CTAAGAAA,0.19
15,ACCATAAC,0.0292
16,GACGTCAC,-0.116
17,AAAAGGAT,0.0447
18,CACGTAAA,-0.0406
19,CCTCTGTC,-0.25
20,CCCGCTAC,-0.158
21,AGAAACAC,0.196
22,ACTTACAT,0.116

row,Sequence,PBM E-score
1,AGGAGTAG,-0.0194
2,AGATAGGA,-0.153
3,ACATCGAA,-0.0163
4,CATAAAAG,0.145
5,CCACCTAC,-0.0449
6,AACTCCAA,0.144
7,AGGACCAA,-0.0934
8,CAACAAGA,-0.0355
9,GAGTTCCA,0.127
10,CTCAGTAC,-0.029
11,ACTGGCTA,-0.0756
12,AGCGTGCC,-0.236
13,CGTTTCTC,0.0691
14,CGCCCCAA,-0.0217
15,GCTGTCCC,-0.24
16,ACCACTTC,-0.0194
17,AAGCATCA,-0.0245
18,AACGCAAT,0.0856
19,ATAGTACA,0.2
20,CGGTGTAG,-0.0571
21,ACTTGCGC,-0.121
22,CCATTCTC,0.0682
